The values that follow are results of earlier work, collected in patent US11529340B2 (priority 2016, dated 2022).

The subject of this series is mice. The note with it: literature or earlier results; route as stated; cited from earlier work.

On to `CN1CC[C@]23c4c5ccc(O)c4O[C@H]2[C@@H](O)C=C[C@H]3[C@H]1C5` [morphine], for which the “impairment of rotarod performance / motor function” value is “significant and dose-related (albeit partial) impairment of motor function”.
